Variants at the background level are over-represented here.
B1: tRNA (parent)
chain: CUCUCGGUAGCCAAGUUGGUUUAAGGCGCAAGACUUUAAUUUAUCACUACGAAAUCUUGAGAUCGGGCGUUCGACUCGCCCCCGGGAGAUUUUUUCCUCGAGCAA

Variants of: B1
Test: nonsense suppression (GFP-seq) (ratio to wild type); higher = more function; SUP4oc tRNA, yeast GFP reporter sort-seq
How it was run: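 Each variant's nonsense suppression (GFPSEQ) is a cell-share-weighted bin median GFP/RFP relative to the unmutated parent tRNA. Yeast with genome-integrated tRNA variants from a ~3% random-mutation library, a galactose-driven GFP ochre reporter and RFP were grown in raffinose/galactose medium with 80 mg/L adenine, then sorted into GFP/RFP bins for Illumina sequencing. Variants needed ≥100 reads and ≥30 cells.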

Nonsense suppression, ≤ 0.026:
CUCUCGGUAGCCAACUUGGUUUAAGGCGCAAGACUUUAAUUUAUCACUACGAAAUCCUGAGAUCGGUCGUUCGACUCGCCCCCGGGAGAUUUUUUCCUCGAGCAA [G15C U57C G67U]
CUCUCGGUAGCCAACUUGGUUUAAGGCGCAAGACUUUAAUUUAUCACUACGAAAUCUGGAGAUCGGGCGUACGACUCGCCCCCGGGAGAUUUUUUCCUCGAGCAA [G15C U58G U71A]
CUCUCGGUAGCCAACUUGGUUUAAGGCGCAAGACUUUAAUUUAUCACUACGAAAUCUUGAGACCGGGCGUUCGACUCGCCCCCGGGAGAUUUUUUCCUCGAGCAA [G15C U63C]
CUCUCGGUAGCCAAUUUGGUUUCAGGCGAAAGACUUUAAUUUAUCACUACGAAAUCUUGAGAUCGGGCGUUCGACUCGCCCCCGGGAGAUUUUUUCCUCGAGCAA [G15U A23C C29A]
CUCUCGGUAGCCAAUUUGGUUUGAGGCGCAAGACUUUAAUUUAUCACUACGAAAGCUUGAGAUCGGGCGUUCGACUCGCCCCCGGGAGAUUUUUUCCUCGAGCAA [G15U A23G U55G]
CUCUCGGUAGCCAAUUUGGUUUUAGGCGCAAGACUUUAAUUUAUCACUACGAAAUCUUGAGAUCGGCCGUUCGACUCGCCCCCGGGAGAUUUUUUCCUCGAGCAA [G15U A23U G67C]
CUCUCGGUAGCCAAUUUGGUUUAGGGCGCAAGACUUUAAUUUAUCACUACGAAAUCUUGGGAUCGGGCGUUCGACUCGCCCCCGGGCAAUUUUUUCCUCGAGCAA [G15U A24G A60G A87C G88A]
CUCUCGGUAGCCAAUUUGGUUUAGGGCGCAAGACUUUAAUUUAUCACUACGAAAUCUUGAGAUCGGGCGUUCGACUCGCCCCCGGCAGAUUUUUUCCUCGAGCAA [G15U A24G G86C]
CUCUCGGUAGCCAAUUUGGUUUAUGGCGCAAGACUUUAAUUUAUCACUACGAAAUCUUGAGAUCGGGCGUUCGACUCGCCCCCGGGAGAUUUUUUCCUCGAGCAA [G15U A24U]
CUCUCGGUAGCCAAUUUGGUUUAAGGCGCUAAACUUUAAUUUAUCACUACGAAAUGUUGAGACCGAGCGUUCGACUCGCCCCCGGGAGAUUUUUUCCUCGAGCAA [G15U A30U G32A C56G U63C G66A]
CUCUCGGUAGCCAAUUUGGUUUAAGGCGCAAGCCUUUAAUUUAUCACUACGAAAUCUUGAGAUCGGGCGUUCGACUCGCCCCCGGGAGAUUUUUUCCUCGAGCAA [G15U A33C]
CUCUCGGUAGCCAAUUUGGUUUAAGGCGCAAGGCUUUAAUUUAUCACUACGAAAUCUUGAGAUCGGGCGUUCGACUCGCCCCCGGGAGAUUUUUUCCUCGAGCAA [G15U A33G]
CUCUCGGUAGCCAAUUUGGUUUAAGGCGCAAGACUUUAAUUUAUCACUACGAAAUCUUGCGAUCGGGCGUUCGACUCGCCCCCGGGAGAUUUUUUCCUCGAGCAA [G15U A60C]
CUCUCGGUAGCCAAUUUGGUUUAAGGCGCAAGACUUUAAUUUAUCACUACGAAAUCUUGCGAUCGGGCGUUCGACUCGCACCCGGGAGAUUUUUUCCUCGAGCAA [G15U A60C C80A]
CUCUCGGUAGCCAAUUUGGUUUAAGGCGCAAGACUUUAAUUUAUCACUACGAAAUCUUGAGUUUGGGCGUUCGACUCGCCCCCGGGAGAUUUUUUCCUCGAGCAA [G15U A62U C64U]
CUCUCGGUAGCCAAUUUGGUUUAAGGCGCAAGACUUUAAUUUAUCACUACGAAAUCUUGAGAUCGGGCGUUCGGCUCGCCCCCGGAAGAUUUUUUCCUCGAGCAA [G15U A74G G86A]
CUCUCGGUAGCCAAUUUGGUUUAAGGAGCAAGACUUUAAUUUAUCACUACGAAAUCUUGAGAUCGGGCGUUCGACUCGCCCCCGGGAGAUUUUUUCCUCGAGCAA [G15U C27A]
CUCUCGGUAGCCAAUUUGGUUUAAGGGGCAAGACUUUAAUUUAUCACUACGAAAUCUUGAGAUCGGGCGUUCGACUCGCCCCCGGGAGAUUUUUUCCUCGAGCAA [G15U C27G]
CUCUCGGUAGCCAAUUUGGUUUAAGGGGCAAGACUUUAAUUUAUCACUACGAAAUCUUGAGAUCGGGCGUUCGACUAGCCCCCGAGAGAUUUUUUCCUCGAGCAA [G15U C27G C77A G85A]
CUCUCGGUAGCCAAUUUGGUUUAAGGUGCAAGCCUUUAAUUUAUCACUACGAAAUCUUGAGAUCGGGCGUUCGACUCGCCCCCGGGAGAUUUUUUCCUCGAGCAA [G15U C27U A33C]
CUCUCGGUAGCCAAUUUGGUUUAAGGCGAAAGACUUUAAUUUAUCACUACGAAAUCUUGAGAUCGGGCGUUCGACUCGCCCCCGGGAGAUUUUUUCCUCGAGCAA [G15U C29A]
CUCUCGGUAGCCAAUUUGGUUUAAGGCGUAUGACUUUAAUUUAUCACUACGAAAUCUUGAGAUCGGGCGUUCGACUCGCCCCCGGGAGAUUUUUUCCUCGAGCAA [G15U C29U A31U]
CUCUCGGUAGCCAAUUUGGUUUAAGGCGUAAGACUUUAAUUUAUCACUACGAAAUCUUGAGAUCGGCCGUUCGACUCGCCCCCGGGAGAUUUUUUCCUCGAGCAA [G15U C29U G67C]
CUCUCGGUAGCCAAUUUGGUUUAAGGCGCAAGAUUUUAAUUUAUCACUACGAAAUCCUGAGAUCGGGCGUUCGACUCGCCCCCGGGAGAUUUUUUCCUCGAGCAA [G15U C34U U57C]
CUCUCGGUAGCCAAUUUGGUUUAAGGCGCAAGAUUUUAAUUUAUCACUACGAAAUCUUGAGAUCGGGCGCUCGACUCGCCCCCGGGAGAUUUUUUCCUCGAGCAA [G15U C34U U70C]
CUCUCGGUAGCCAAUUUGGUUUAAGGCGCAAGACUUUAAUUUAUCACUACGAAAUUUUGAGAUCGGGCGUUCGACUCGCCCCCGGGAGAUUUUUUCCUCGAGCAA [G15U C56U]
CUCUCGGUAGCCAAUUUGGUUUAAGGCGCAAGACUUUAAUUUAUCACUACGAAAUUUUGAGAUCGAGCGUUCGACUCGCCCCCGGGAGAUUUUUUCCUCGAGCAA [G15U C56U G66A]
